± gives the standard deviation of the averaged measurements. Some of the results follow.

For this assay, the system named is PfAP2-I AP2 domain 3 (GST-tagged). Kind of assay: gcPBM binding intensity (ln(normalized median fluorescence intensity)); higher = stronger DNA binding. Summed up: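 After 1 h on an Agilent 4 × 180k array of primer-extended double-stranded 36-bp intergenic genomic probes and negative controls, bound GST-tagged P. falciparum DNA-binding domains were detected with Alexa488 anti-GST antibody and scanned at 488 nm. The domains had been expressed in E. coli, and binding took place in 1× PBS with 1% milk, 0.2 mg/ml BSA, 0.5% salmon testes DNA and 0.03% Triton X-100. Binding intensity is the highest Masliner-normalised natural-log median intensity across replicate spots of either probe orientation.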
For the sequence “AAAAAAAAAAAAAACTGTACCAAAAAGAATATATAC [XGTACX_site8345]”, the “gcPBM binding intensity (ln)” value is 7.97 ± 0.45. For the sequence “ATCCTCTTTACAATATGTACATAAATATATATTTAT [XGTACX_site8001]”, the “gcPBM binding intensity (ln)” value worked out at 8.47 ± 0.43. As for “TATATATATAAATACACACACATATATATATATATA [CACACA_site4867]”, the “gcPBM binding intensity (ln)” value was determined as 9.37 ± 0.81. On to “TATTTATTTATTTATTTATTTATTTATTTATATTTA [CACACA_negctrl_site398]”, for which the “gcPBM binding intensity (ln)” value is 8.05 ± 0.54. Next, “TATATATTTTTATTATGTACATATTAACAATGTGTT [XGTACX_site879]”: 7.83 ± 0.33; “TAAAATATAAAACACACACACATATATATATATATT [CACACA_site224]”: 7.8 ± 0.4. The result for “AAGTAAAATAAGTATACACACATAAATATATATATA [CACACA_site685]” reads 8.94 ± 0.2. On to “TATAATAATACGTATTGTACTATTAGGTTAATTCGT [XGTACX_site264]”, for which the “gcPBM binding intensity (ln)” value was determined as 7.62 ± 0.5. Next, “ACTTGTAAGAAACACACACACACACCCATATATATA [CACACA_site796]”: 8.3 ± 0.79; “TCTATAAAGGAATATACACACATATATATATATATA [CACACA_site410]”: 9.36 ± 0.29; “TTTTCTTGTAAATTACGTACGAATGTGTAGAGAAAT [XGTACX_site1339]”: 8.36 ± 0.58. The result for “TTATTAAATATGTACACACGTACATTTTATAAATGA [CACACA_site2387]” reads 7.58 ± 0.4; that for “TATATATATATTTAGTGTACTTAAAAAAAATAATAA [XGTACX_site5454]”, 8.9 ± 0.18. The result for “TATTTTTTTTTCCATTGTACATTTTTGATATTTTTC [XGTACX_site744]” reads 7.89 ± 0.57.

In the case of “ATAATAATAAAATATATATACAAAGGTGAAATTATA [TGCATGCA_negctrl_site197]”, the “gcPBM binding intensity (ln)” value was determined as 7.96 ± 0.58. Next, “CTTTGTAGTATATTAACACACAACTGTTTATAATAT [CACACA_site6038]”: 7.77 ± 0.54; “TTCTTTAAAAAATTCGATAAAAAAAAAAAAAGAAAA [CACACA_negctrl_site242]”: 7.57 ± 0.35; “TATATACTCATGCGCACACACAAGTGGGAAATTTGG [CACACA_site5056]”: 8.35 ± 0.6. The result for “GGAAAGACAGTTCACAGTACCCAGGAAATCTACGGA [XGTACX_site1996]” reads 7.58 ± 0.69; that for “ATATATTATAGGTACACACACATATAAGGGATTATA [CACACA_site6154]”, 7.99 ± 0.38; that for “ATATACATATATATTGCATGCAGAGAGTATTTATAA [TGCATGCA_site646]”, 8.14 ± 0.49. Next, ATATATATATATATTGTGCACAAAAAAAAATAAGCA: 11.2 ± 0.15.

For “CGTTCATATTATTATAGTACATATTATTATAGTTTT [XGTACX_site1550]”, the “gcPBM binding intensity (ln)” value is 7.69 ± 0.42. The result for “TTTTTTTTTTTATTTGCATGCGGTGTTCATAATATT [TGCATGCA_site199]” reads 8.18 ± 0.95; that for “TATTTGTAAATTATTTGGGTGTGTAGGGGATATTCT [XGTACX_negctrl_site204]”, 8.28 ± 0.86; that for “TTGGTGGATAAATTTACACACAATAACTTTCGTTCA [CACACA_site6358]”, 8.43 ± 0.12. The result for “AGAAGAAAAGTAAAAAGTACATTATTCATGGCCTAT [XGTACX_site5601]” reads 7.46 ± 0.7. As for “ATATAAGAAATAAAGAAAAATGTGTTTTTTTTTTTT [XGTACX_negctrl_site396]”, the “gcPBM binding intensity (ln)” value was 7.5 ± 0.59. Next, “TTTTTCCTAACATATTATATACTTGAATATTTATTA [CACACA_negctrl_site156]”: 7.67 ± 0.56.

Take “AAACAAATATTTATCACAATGTCATTTTGTTAACAT [GTGCAC_negctrl_site171]”: the “gcPBM binding intensity (ln)” value is 7.62 ± 0.68. Next, “AGAGCTGTTTTTTATGCATGTAGTTTAGAAAATACA [TGCATGCA_site257]”: 7.67 ± 0.61; “TTTATCTTATTTTTATGTACTTATTTTATAAAAAAA [XGTACX_site7730]”: 8.29 ± 0.23. The result for “AACAAATTTATCCAAAGTACAAAATATCATTTCTTA [XGTACX_site4543]” reads 7.47 ± 0.54. Next, “ATTATAATTATATATGCATGTAGCATTTTCTATTTT [TGCATGCA_site66]”: 7.55 ± 0.81. “AACAACATGTAGACGCGTACCAACATCAGATCCTAT [XGTACX_site4071]”: the “gcPBM binding intensity (ln)” value worked out at 7.71 ± 0.59.

As to “TTCTTTATTTATCATTATAAGAAGAGTTGATTTGTT [XGTACX_negctrl_site555]”, the “gcPBM binding intensity (ln)” value turned out to be 7.66 ± 0.44. In the case of “TTATAATATAGCAATTATTAAATAGGATCAAATGAA [CACACA_negctrl_site632]”, the “gcPBM binding intensity (ln)” value was found to be 7.62 ± 0.49. Next, “TATAAATACTAAAAAAGTACAAAATTTCATAAAAAA [XGTACX_site2709]”: 7.82 ± 0.59. Next, “ATTTTATATAATACATGTACAAAAGTTTAAATTTAT [XGTACX_site6196]”: 7.67 ± 0.76; “ATATGTTTGATTTTTTTTTTTTTTTTTTTTATGTGT [CACACA_negctrl_site1001]”: 7.61 ± 0.12; “AAAAAAAAAATTAAAAGTACAGAAAATAAATAAATA [XGTACX_site7470]”: 7.62 ± 0.69. The result for “TTAATACACCATAAAAGTACATAATATGATATTTAA [XGTACX_site8561]” reads 8.06 ± 0.071; that for “TTTTTCTTTTTTTTTTCCTTTATCACATAAGAAAAA [CACACA_negctrl_site192]”, 7.84 ± 0.58. Regarding “AAGATATGAGGGAATACACACATATATATATATATA [CACACA_site1581]”, the “gcPBM binding intensity (ln)” value was 9.31 ± 0.52.

(Values after the supplement of paper PMC11417369.)
